The values below come from the supplement of paper PMC12645437, “Orthogonal IMiD-Degron Pairs Induce Selective Protein Degradation in Cells” (ACS Chemical Biology, 2025).

Some of the results follow.
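Note: jurkat cells carrying a lentiviral library of mutant zinc finger degrons fused to EGFP plus mCherry, mCherry+ cells FACS sorted, degron abundance counted by next-generation sequencing.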

The target in this test is no compound (DMSO). Nature of the test: log2 fold change of degron read counts, EGFP-low vs EGFP+ sorted cells; higher = lower degron-EGFP level without compound (poor expression or instability). To be noted: compound: DMSO control; 18 h.
For the sequence FQCNQCGAMFTQKGNLLRHIKL, the “log2 fold change of degron read counts” value was -0.849.
Take FLCNQCGHFFTQKGNLLRHIKL: the “log2 fold change of degron read counts” value came to 1.02.
Regarding LKCNQCGFQCTQKGNLLRHIKL, the “log2 fold change of degron read counts” value was -0.39.
LCCNQCGFPCTQKGNLLRHIKL: the “log2 fold change of degron read counts” value was found to be 0.557.
In the case of FHCNVCGAFFTQKGNLLRHIKL, the “log2 fold change of degron read counts” value was -0.165.
For the sequence FKCPICGARFTQKGNLLRHIKL, the “log2 fold change of degron read counts” value was -1.07.
As to LRCPICGFMCTQKGNLLRHIKL, the “log2 fold change of degron read counts” value is 1.29.
In the case of FYCDVCGAWFTQKGNLLRHIKL, the “log2 fold change of degron read counts” value worked out at 0.623.
Under FRCPICGRAFTQKGNLLRHIKL stands -0.149; under FLCEICGHFFTQKGNLLRHIKL, -0.371.
Under LWCPICGFDCTQKGNLLRHIKL stands 3.12; under LICEICGFVCTQKGNLLRHIKL, -0.304.
The result for FFCSVCGHIFTQKGNLLRHIKL reads 1.11.
Regarding FACNQCGAFFTQKGNLLRHIKL, the “log2 fold change of degron read counts” value is 0.0206.
Regarding FACNQCGRFFTQKGNLLRHIKL, the “log2 fold change of degron read counts” value was found to be 0.768.
The result for FKCEICGRQFTQKGNLLRHIKL reads -2.67.
Under LDCNQCGFRCTQKGNLLRHIKL stands 0.767; under FFCPICGHYFTQKGNLLRHIKL, 0.712.
Regarding FECDICGAEFTQKGNLLRHIKL, the “log2 fold change of degron read counts” value is -1.97.
The result for FACNICGAGFTQKGNLLRHIKL reads -0.587; that for FECDQCGAAFTQKGNLLRHIKL, -2.64; that for FHCDICGACFTQKGNLLRHIKL, -0.104.
Take FHCNVCGARFTQKGNLLRHIKL: the “log2 fold change of degron read counts” value was -0.148.
The result for FWCEVCGAGFTQKGNLLRHIKL reads -0.748; that for FYCDQCGASFTQKGNLLRHIKL, -1.94; that for LTCPICGFYCTQKGNLLRHIKL, 1.25.
Take FFCEICGRAFTQKGNLLRHIKL: the “log2 fold change of degron read counts” value was -0.973.
For LACEICGFCCTQKGNLLRHIKL, the “log2 fold change of degron read counts” value turned out to be 0.267.
The result for FICPVCGAIFTQKGNLLRHIKL reads 1.04.
The result for FGCNQCGHQFTQKGNLLRHIKL reads 0.71.
Under FACEICGHKFTQKGNLLRHIKL stands -1.11; under FQCPVCGAEFTQKGNLLRHIKL, -1.23; under FQCEICGAFFTQKGNLLRHIKL, -1.6.
Take FTCEICGREFTQKGNLLRHIKL: the “log2 fold change of degron read counts” value is -2.8.
As to FICDVCGAMFTQKGNLLRHIKL, the “log2 fold change of degron read counts” value was -0.68.
Take FKCEICGAHFTQKGNLLRHIKL: the “log2 fold change of degron read counts” value is -2.04.
Under FLCNQCGAHFTQKGNLLRHIKL stands -0.581; under FICSVCGHLFTQKGNLLRHIKL, -0.0755.
Under FECNQCGHNFTQKGNLLRHIKL stands -0.764; under FQCDQCGAKFTQKGNLLRHIKL, -1.34; under FNCEVCGARFTQKGNLLRHIKL, 0.0393.
Under FMCDVCGAAFTQKGNLLRHIKL stands -1.11; under FKCEICGHYFTQKGNLLRHIKL, -1.2; under FSCPVCGAPFTQKGNLLRHIKL, 0.261.
For the sequence FYCNVCGAWFTQKGNLLRHIKL, the “log2 fold change of degron read counts” value stood at 1.11.
The result for FCCPICGACFTQKGNLLRHIKL reads 0.175; that for FWCEICGARFTQKGNLLRHIKL, -0.918.
With FCCPQCGADFTQKGNLLRHIKL, the “log2 fold change of degron read counts” value is -1.19.
Under FECSVCGHVFTQKGNLLRHIKL stands -1.32; under FHCPICGRQFTQKGNLLRHIKL, -1.05.
